Out of some 310,000 compounds screened, about 14,000 (4.5%) showed an effect of 50% or more. Effects have a minus sign here. This is one part of the list.
molecular target: human ether-à-go-go-related gene (hERG) potassium channel (human, UniProt Q12809); assay: primary screen, population patch clamp on CHO cells stably expressing hERG
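Note: peak tail current of the secondary pulse compared with the same well before compound.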

Sequence of human ether-à-go-go-related gene (hERG) potassium channel (Q12809 whole entry, looked up): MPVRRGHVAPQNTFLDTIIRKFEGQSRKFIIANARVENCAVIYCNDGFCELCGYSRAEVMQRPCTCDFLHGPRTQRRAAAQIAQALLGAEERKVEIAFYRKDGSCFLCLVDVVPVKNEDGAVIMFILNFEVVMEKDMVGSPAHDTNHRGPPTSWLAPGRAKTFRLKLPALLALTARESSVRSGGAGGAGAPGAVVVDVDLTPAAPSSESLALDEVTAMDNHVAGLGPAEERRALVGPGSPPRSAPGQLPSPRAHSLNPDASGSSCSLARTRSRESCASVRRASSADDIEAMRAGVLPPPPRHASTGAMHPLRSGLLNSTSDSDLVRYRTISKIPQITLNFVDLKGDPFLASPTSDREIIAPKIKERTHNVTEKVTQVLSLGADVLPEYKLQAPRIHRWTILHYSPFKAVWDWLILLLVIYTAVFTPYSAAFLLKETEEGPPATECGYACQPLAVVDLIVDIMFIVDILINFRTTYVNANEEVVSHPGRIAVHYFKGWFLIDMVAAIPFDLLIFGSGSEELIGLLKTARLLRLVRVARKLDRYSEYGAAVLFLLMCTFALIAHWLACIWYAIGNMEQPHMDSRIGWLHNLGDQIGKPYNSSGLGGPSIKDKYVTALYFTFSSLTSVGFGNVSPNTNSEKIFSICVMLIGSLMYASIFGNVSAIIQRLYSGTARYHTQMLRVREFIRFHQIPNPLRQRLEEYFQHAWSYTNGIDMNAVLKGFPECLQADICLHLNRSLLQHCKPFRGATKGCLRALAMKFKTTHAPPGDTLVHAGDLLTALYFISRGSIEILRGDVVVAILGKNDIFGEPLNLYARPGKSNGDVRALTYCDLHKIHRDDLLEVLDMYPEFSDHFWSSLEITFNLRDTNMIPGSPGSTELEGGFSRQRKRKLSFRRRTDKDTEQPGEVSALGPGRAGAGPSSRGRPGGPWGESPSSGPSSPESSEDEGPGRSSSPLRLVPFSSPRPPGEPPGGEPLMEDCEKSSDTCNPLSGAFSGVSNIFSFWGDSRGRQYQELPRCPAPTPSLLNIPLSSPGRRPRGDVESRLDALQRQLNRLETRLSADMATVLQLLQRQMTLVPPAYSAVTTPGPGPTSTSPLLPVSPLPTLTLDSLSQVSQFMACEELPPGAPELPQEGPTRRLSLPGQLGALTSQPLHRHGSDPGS

Compared with `C=CCN1C(=O)c2ccc(C(=O)N3CCN(S(=O)(=O)c4ccc(C(C)C)cc4)CC3)cc2C1=O`, `COc1ccc(NS(=O)(=O)c2ccc(O)c(NC(=O)c3ccc(S(=O)(=O)N4CCCC4)cc3)c2)cc1` is higher in “hERG current change (%, negative = inhibition) at 10uM” value: -5.78% for the first, 2.69% for the second.

Going from `Cc1ccc2nc(-c3ccncc3)cc(C(=O)Nc3ccncc3)c2c1` to `Cc1nnc2ccc(-c3cccc(NS(=O)(=O)c4cc(F)ccc4F)c3)nn12`, the “hERG current change (%, negative = inhibition) at 10uM” value rises from -0.323% to -0.0273%.

Compared with `COCCN(C(=O)CCC(=O)Nc1ccccn1)C(C(=O)NC1CCCC1)c1ccc(OC)cc1` (centres unmarked), `COc1ccccc1NS(=O)(=O)c1cc(NC(=O)C2CCC2)ccc1N1CCCCC1` is higher in “hERG current change (%, negative = inhibition) at 10uM” value: 2.56% for the first, 16.6% for the second.

Going from `CCc1cc(C(=O)NNC(=O)CCN2CCN(c3ccccc3)CC2)sc1C` to `O=C(c1cccc(Br)c1)N1CCN(c2cnn(-c3ccccc3)c(=O)c2Cl)CC1`, the “hERG current change (%, negative = inhibition) at 10uM” value falls from 11.8% to -47.4%.

Going from `CC(=O)N1CCC(N(CCN2CCOCC2)C(=S)Nc2cc(C)cc(C)c2)CC1` to `COc1ccc(CN2CCN(C(=O)CC(C)C)CC2)cc1Br`, the “hERG current change (%, negative = inhibition) at 10uM” value falls from -2.98% to -4.54%.

First: CCN(CC)c1ccc([N+](=O)[O-])cc1/C=N/NC(=O)CC#N
Second: O=C(Cc1ccccc1)NCC(=O)OCc1cccc([N+](=O)[O-])c1
The “hERG current change (%, negative = inhibition) at 10uM” value of the first is lower: -33.8% for the first, -6.77% for the second.

Going from `O=S(=O)(NCc1cccnc1)c1ccc2c(c1)OCCO2` to `COc1ccc(S(=O)(=O)Nc2cccc(Cl)c2)cc1OC`, the “hERG current change (%, negative = inhibition) at 10uM” value falls from 0.45% to -2.18%.

Going from `CN(C)S(=O)(=O)N1CCC(Oc2cccc(C(=O)NCCCC3CCCC3)c2)CC1` to `O=C(NCC1CCCN(C(=O)CN2CCCCC2)C1)c1ccccc1Cl` (centres unmarked), the “hERG current change (%, negative = inhibition) at 10uM” value rises from -7.54% to 13%.

Going from `Cc1ccc(-c2nnc3n2N=C(c2ccc(Br)cc2)CS3)cc1` to `Cc1ccc(-n2c(C)cc(C(=O)COC(=O)c3ccc[nH]c3=O)c2C)cc1`, the “hERG current change (%, negative = inhibition) at 10uM” value falls from -1.26% to -14.6%.

Compared with `CN(C)C1(CNC(=O)C2CCC(=O)N(CCc3ccc(Cl)cc3)C2)CCCCC1` (centres unmarked), `S=C(NCc1ccc(Cl)cc1)NC12CC3CC(CC(C3)C1)C2` is higher in “hERG current change (%, negative = inhibition) at 10uM” value: -17.3% for the first, 11.5% for the second.

First: COc1cc(C(=O)Nc2nnc(SC)s2)c([N+](=O)[O-])cc1OC
Second: COc1nc(OC)nc(N2CCC(NC(=O)C(Cc3cccc(OC)c3OC)NC(C)=O)CC2)n1 (centres unmarked)
The “hERG current change (%, negative = inhibition) at 10uM” value of the first is higher: 9.4% for the first, -2.3% for the second.

Compared with `S=c1[nH]nc(-c2ccccc2)n1/N=C/c1cccc(Cl)c1`, `c1ccc(CSc2snnc2-c2ccccc2)cc1` is lower in “hERG current change (%, negative = inhibition) at 10uM” value: 25.8% for the first, -0.581% for the second.

Going from `CCCCOc1nc2c(c(=O)n(C)c(=O)n2C)n1C` to `CCc1nn(CC(=O)N2CCN(c3ccc(OC)cc3)CC2)c(=O)c2cc3occc3n12`, the “hERG current change (%, negative = inhibition) at 10uM” value falls from 5.4% to 3.03%.

First: O=C1C2(Cl)C3(Cl)C4(Cl)C(Cl)(Cl)C5(Cl)C3(Cl)C1(Cl)C5(Cl)C24Cl (centres unmarked)
Second: O=C(O)c1c(Cl)c(Cl)c(Cl)c(Cl)c1C(=O)N1CCCC1
The “hERG current change (%, negative = inhibition) at 10uM” value of the first is higher: 18.4% for the first, 7.07% for the second.

Compared with `Cc1cc(C)c(S(=O)(=O)N2CCCC2CNC(=O)c2ccc3c(c2)OCO3)c(C)c1` (centres unmarked), `CC(Oc1ccccc1F)c1nnc(SCC(=O)NCc2ccc3c(c2)OCO3)o1` (centres unmarked) is higher in “hERG current change (%, negative = inhibition) at 10uM” value: -33.7% for the first, -32.1% for the second.

First: O=C(O)/C=C/C(=O)Nc1cc(F)ccc1F
Second: CC(OC(=O)C1CC(=O)N(Cc2ccco2)C1)C(=O)Nc1ccc(F)cc1Cl (centres unmarked)
The “hERG current change (%, negative = inhibition) at 10uM” value of the first is higher: 22.1% for the first, 11.1% for the second.

First: CC[N+](C)(CC)CCC/C(=N/O)C(O)(c1ccccc1)c1ccccc1.[I-]
Second: O=C(O)c1ccnc(SCC(=O)c2ccccc2)c1
The “hERG current change (%, negative = inhibition) at 10uM” value of the first is higher: 15.5% for the first, 13.3% for the second.

Going from `CSc1ccc(S(=O)(=O)N2CCC(C(=O)NCc3ccco3)CC2)cc1` to `O=C(NCc1ccc(F)cc1)N1CCN(C(=O)c2ccccc2)CC1`, the “hERG current change (%, negative = inhibition) at 10uM” value rises from -34.5% to -13.5%.

First: O=C(NC(=S)Nc1ccc2[nH]c(=O)[nH]c2c1)c1cc(Br)ccc1Cl
Second: Cc1cc(C)nc(/N=C(/NC(=O)Nc2ccc(Cl)c(Cl)c2)Nc2cccc(Cl)c2)n1
The “hERG current change (%, negative = inhibition) at 10uM” value of the first is higher: 23% for the first, 6.58% for the second.

Compared with `O=C(NC1=NCCS1)C1CCCCC1`, `CC(C)CNC(=S)NNC(=O)c1csc2c1CCC(C)C2` (centres unmarked) is lower in “hERG current change (%, negative = inhibition) at 10uM” value: 24.5% for the first, -2.19% for the second.

First: Cc1cc(NC(=O)Nc2cc(Cl)ccc2C)no1
Second: Cc1ccc(NC(=O)CN(C)S(=O)(=O)c2cccc3cccnc23)cc1C
The “hERG current change (%, negative = inhibition) at 10uM” value of the first is higher: 7.39% for the first, -1.77% for the second.

Compared with `O=C(C1=C[C@H](c2ccc(Br)cc2)C[C@H](OCc2ccc(CO)cc2)O1)N1CCN(Cc2ccc3c(c2)OCO3)CC1`, `CN(C)CCN(C(=O)c1cccc2ccccc12)c1nc2cc3c(cc2s1)OCO3.Cl` is lower in “hERG current change (%, negative = inhibition) at 10uM” value: -19.8% for the first, -22.3% for the second.

Going from `Cc1nnc(SCC(=O)NCc2ccc(F)cc2)[nH]c1=O` to `CC(C)N(C(=O)CSc1nc(COc2ccccc2)nc2ccccc12)C(C)C`, the “hERG current change (%, negative = inhibition) at 10uM” value falls from 23% to -4.66%.

Compared with `O=C(Cn1cc(C(=O)c2ccco2)c2ccccc21)Nc1ccccc1`, `Cc1nn(-c2ccccc2)c2nc(Cl)c(C(=O)O)cc12` is lower in “hERG current change (%, negative = inhibition) at 10uM” value: 7.45% for the first, -0.085% for the second.

Compared with `CC(C)(C)C(=O)NC(NC(=S)Nc1sc2c(c1C#N)CCCC2)C(Cl)(Cl)Cl` (centres unmarked), `O=C(NCC1CCCO1)c1ccccc1NS(=O)(=O)c1cccs1` (centres unmarked) is lower in “hERG current change (%, negative = inhibition) at 10uM” value: 21.9% for the first, -5.56% for the second.

Going from `N#C/C(=C/c1ccc(Sc2nc3ccccc3[nH]2)o1)c1cccc(Br)c1` to `C=CCc1cccc([C@@H]2[C@@H](C)CC[C@H]3C(=O)N4[C@@H](c5cc(OC)c(OC)c(OC)c5)c5[nH]c6ccccc6c5C[C@H]4C(=O)N23)c1`, the “hERG current change (%, negative = inhibition) at 10uM” value falls from 21.3% to 19.9%.

`CNc1oc(/C=C/c2cccc(OC)c2)nc1C#N` was tested, and the “hERG current change (%, negative = inhibition) at 10uM” value was 13.9%.
